Laboratory results: the supplement of paper PMC4466236
The full ranking holds about 33,000 sequences; the median of “E-score (dimensionless, -0.5 to 0.5)” is about -0.058, and the highest 2% start at about 0.35. The list shows a part of the results.

Test system: MvaT
Experiment: PBM 8-mer E-score (mean of HK and ME arrays) (E-score (dimensionless, -0.5 to 0.5)); higher = stronger relative binding preference; most listed sequences are background and not binding sites
Description: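 Protein binding microarray: GST-tagged full-length MvaT (P. aeruginosa PAO1) bound to two universal double-stranded 60-mer arrays (ME and HK), each with a constant 25-mer primer and a variable 35-mer region covering all 8-mers. The 8-mer E-score (rank-based, range -0.5 to 0.5, >0.45 = specific binding) is the mean of the two arrays.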

Sequence	PBM 8-mer E-score
ACTGTGGC	-0.208
GGTTATTA	0.285
ATCACCCA	0.00261
GTACGACA	0.049
GGAATCCC	-0.22
ACCTATTG	0.0798
GACAGCGA	-0.109
GGATCACC	-0.172
CTTAATTC	0.281
CCGTGGCA	-0.205
CGCTTAGC	-0.213
ACGAATAT	0.252
GCGGCTCC	-0.297
AGCACCCG	-0.392
CGTGCAAG	-0.0233
GAATCCAC	-0.159
CATATCCG	-0.0153
AGCTCTAT	0.0198
AGGTAAAC	0.0823
ATATAGCG	0.333
CTCCGTCC	-0.242
AGCACCAT	-0.169
CAACGTGC	-0.198
AATTCCGC	0.0978
AAAAGCAT	0.0311

Sequence	PBM 8-mer E-score
GGACCATA	-0.132
ATGACCAC	-0.00499
GATTCAAC	-0.0777
GTGCGGAA	-0.0324
AAACACCG	0.222
ACGATAGC	-0.0306
AGCGACGC	-0.23
ACTTTAGA	0.199
ACTTCACG	0.015
AGGGACAC	-0.232
GGGGCTTA	-0.186
CAGTCTGC	-0.126
CACAGATA	0.142
ACGCATTC	-0.0386
CCTAGCTA	-0.151
GCATACTA	0.186
CCTACCAG	-0.279
TGAAATCA	-0.0364
CCGGGTCA	-0.174
CACATTTA	0.301
CAGAAAGA	0.0379
AGGTTGTG	-0.073
ATGGCCGC	-0.268
CACGTAGA	0.0372
CGTTTGGC	-0.0932

Sequence	PBM 8-mer E-score
ACCGATGA	-0.128
ATACAACC	0.161
CCCATTCA	-0.115
ACTTGAAA	0.308
GAACCCCA	-0.265
CGACTAAC	0.0164
GATCGCGC	-0.193
TCCCTAGA	-0.158
GGTCGGCA	-0.197
AAGAGGCT	-0.22
ACATCTTC	0.185
CACGATAA	0.214
CATGCCGC	-0.26
CGTTCATA	0.0243
CAACCTGA	-0.074
ACGGAAAC	-0.0671
ACCTGGCC	-0.117
CATATACG	0.143
ACCGTTAA	0.255
GAGTTTGA	0.0246
ATTTATCG	0.291
CGAGTGCC	-0.245
AACAAGGA	-0.128
GGAGCTCC	-0.377
CCTGGGCG	-0.251

Sequence	PBM 8-mer E-score
CACTGTGA	-0.112
CTCTTGAA	-0.222
CGACGGGA	-0.215
AGTAGTAA	0.27
AGATATCG	0.141
AGGGACCG	-0.271
ATGACTAG	0.042
AGGAGCGA	-0.177
ATTGGTCA	0.103
ATCCGGCA	0.0186
AATTAGAC	0.169
AGTCGAGA	-0.111
ATCATCGA	-0.116
TACGCAAA	0.129
ATAGAACG	0.0944
CAACGATC	-0.135
TCAACGGA	-0.0413
TAGTGGCA	0.195
AAAGGCAG	-0.181
AAGGACCT	-0.236
CGGTTAAG	-0.0554
AGTGAATC	-0.0528
CCGATCTC	-0.17
CGGTACAG	-0.106
ACTCAGTC	-0.153

Sequence	PBM 8-mer E-score
GCCAGTCA	-0.12
CGATGACG	-0.106
GCAAGAGC	-0.122
GAATCCCC	-0.214
CACATCCG	-0.145
AAAACATG	0.08
CAGTTACA	0.272
ACGCTCAG	-0.242
GCAGGGCA	-0.394
AGCATAAT	0.338
GCCCTCTA	-0.286
CTCTCGAC	-0.207
GCGATTCA	-0.0568
AGCTGATC	-0.16
AAGTGTGC	0.0466
CACTACCA	0.0799
GCTGTTAC	-0.0475
GTAGAGAC	0.043
AACCAACT	0.113
ATTTGGTC	0.074
ACATAACC	0.133
CCTTTTGA	-0.074
CAGCGTGG	-0.178
ACGCATCC	-0.232
CTTTCAGC	-0.0206

Sequence	PBM 8-mer E-score
GCCGAGAA	-0.0283
AGTTTCTA	0.202
CTCCAAAA	0.0625
CAAGCACC	-0.251
CTTACCTA	0.0935
GACTCGAC	-0.214
TCGATTAA	0.199
AGTGCGCC	-0.0307
CGGCTATA	0.051
AACCCCTT	-0.084
CTAGCGCC	-0.248
ACCACACG	-0.063
GCCTGGTA	-0.257
CATGGAGG	-0.231
GGTCTAAC	-0.0173
CCGTGACG	-0.163
AATTGGCG	0.126
AGGGGAAA	-0.075
AACTGCGC	0.00232
AAGATTGT	0.0798
ATTACTCC	0.177
GTAGCCAC	-0.227
GATGATGA	-0.0331
AAGATTTG	0.0664
CAACGTCC	-0.219

Sequence	PBM 8-mer E-score
CTATTTGC	0.148
GAGTAGGA	0.0177
CAACTAGA	0.0954
AAGATATC	0.26
GCGGCTTA	-0.112
GTCAAATA	0.254
CTTATATA	0.452
CGCACTTC	-0.0964
AAATTACA	0.274
CCTCGTTA	-0.0811
ACTATGCG	0.0353
CACGGCTC	-0.206
GCGTACAA	-0.0805
ACTCAGCG	-0.133
GGGCAAGA	-0.193
CTCGCATC	-0.222
AGCATGAA	-0.0151
ATGACCTC	-0.244
AATGGTCT	-0.112
GATTAGAA	0.0708
CCGTTTAC	0.031
CATGTACA	0.267
